Measured values published in the supplement of paper PMC12217912.
The list shows a part of the results. The full chains were built here from the parent and the listed change. Inactive controls read about 0.05.

B1: TEV protease; numbered along this chain (parent)
chain: MGESLFKGPRDYNPISSSICHLTNESDGHTTSLYGIGFGPFIITNKHLFRRNNGTLVVQSLHGVFKVKDTTTLQQHLVDGRDMIIIRMPKDFPPFPQKLKFREPQREERICLVTTNFQTKSMSSMVSDTSCTFPSGDGIFWKHWIQTKDGQCGSPLVSTRDGFIVGIHSASNFTNTNNYFTSVPKNFMELLTNQEAQQWVSGWRLNADSVLWGGHKVFMVKPEEPFQPVKEATQL

Variants of: B1
Experiment: raw area under fraction-flipped curve 0-4 h after induction (AUC4h, not background-subtracted), DNA-recorder readout of cleavage of the substrate (dimensionless); higher = more cleavage of the substrate by the protease variant
Settings: temperature: 34 °C; time window: 0-4 h after rhamnose induction
Experimental: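 In vivo DNA recorder in E. coli TOP10(DE3) ΔrhaA at 34 °C. Each TEVp single-site mutant (parent TEVp 0) is paired with a single-site variant of the 7-mer TEVs (canonical ENLYFQ|S). The substrate sits between flexible linkers in a Bxb1-sfGFP-TEVs-SsrA fusion, so cleavage stabilises Bxb1 and speeds flipping of a recombination array, read by NGS. The value is the raw area under the fraction-flipped curve over 0-4 h after rhamnose induction (AUC4h), with ≥20 reads per time point. It is not background-subtracted; inactive controls average about 0.047.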
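Further: Bxb1 expression induced with 0.2% (w/v) L-rhamnose at OD600 near 0.5, cultures sampled hourly, flipped fraction per protease–substrate barcode pair counted by paired-end Illumina sequencing.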

MGESLFKGPRDYNPISSSICHLTNESDGHTTSLYGIGFGPFIITNKHLFRRNNGTLVVQSLHGVFKVKDTTTLQQHLVDGRDMIIIRMPKDFPPFPQKLKFREPQREERICLVTTNFQTKSMSSMVSDTSCTFPSGDGIFWKHWIQTKDGQCGSSLVSTRDGFIVGIHSASNFTNTNNYFTSVPKNFMELLTNQEAQQWVSGWRLNADSVLWGGHKVFMVKPEEPFQPVKEATQL [P155S]
area with substrate ECLYFQS: 0.054
area with substrate EDLYFQS: 0.068
area with substrate EGLYFQS: 0.0932
area with substrate EHLYFQS: 0.0347
area with substrate EILYFQS: 0.0601
area with substrate EKLYFQS: 0.0869
area with substrate ELLYFQS: 0.0635
area with substrate EMLYFQS: 0.0584
area with substrate EPLYFQS: 0.0726
area with substrate EQLYFQS: 0.0599
area with substrate ERLYFQS: 0.0679
area with substrate ESLYFQS: 0.0659
area with substrate EVLYFQS: 0.0576
area with substrate EWLYFQS: 0.0837

MGESLFKGPRDYNPISSSICHLTNESDGHTTSLYGIGFGPFIITNKHLFRRNNGTLVVQSLHGVFKVKDTTTLQQHLVDGRDMIIIRMPKDFPPFPQKLKFREPQREERICLVTTNFQTKSMSSMVSDTSCTFPSGDGIFWKHWIQTKDGQCGSPLVSTRDGFIVRIHSASNFTNTNNYFTSVPKNFMELLTNQEAQQWVSGWRLNADSVLWGGHKVFMVKPEEPFQPVKEATQL [G166R]
area with substrate ECLYFQS: 0.0531
area with substrate EDLYFQS: 0.0544
area with substrate EELYFQS: 0.05
area with substrate EFLYFQS: 0.0453
area with substrate EGLYFQS: 0.0695
area with substrate EILYFQS: 0.0263
area with substrate ELLYFQS: 0.0512
area with substrate EMLYFQS: 0.0322
area with substrate EQLYFQS: 0.0549
area with substrate ESLYFQS: 0.058
area with substrate ETLYFQS: 0.0421
area with substrate EVLYFQS: 0.0472
area with substrate EWLYFQS: 0.0482

MGESLFKGPRDYNPISSSICHLTNESDGHTTSLYGIGFGPFIITNKHLFRRNNGTLVVQSLHGVFKVKDTTTLQQHLVDGRDMIIIRMPKDFPPFPQKLKFREPQREERICLVTTNFQTKSMSSMVSDTSCTFPSGDGIFWKHWIQTKDGQCGSPLVSTRDGFIVGIHSASNFTNTNNYFTSVPKNIMELLTNQEAQQWVSGWRLNADSVLWGGHKVFMVKPEEPFQPVKEATQL [F187I]
area with substrate ECLYFQS: 0.103
area with substrate EDLYFQS: 0.115
area with substrate EELYFQS: 0.127
area with substrate EFLYFQS: 0.0989
area with substrate EGLYFQS: 0.0973
area with substrate EHLYFQS: 0.104
area with substrate EILYFQS: 0.0897
area with substrate EKLYFQS: 0.113
area with substrate ELLYFQS: 0.0677
area with substrate EMLYFQS: 0.121
area with substrate EQLYFQS: 0.144
area with substrate ERLYFQS: 0.0906
area with substrate ESLYFQS: 0.0949
area with substrate EVLYFQS: 0.097
area with substrate EWLYFQS: 0.101

MGESLFKGPRDYNPISSSICHLTNESDGHTTSLYGIGFGPFIITNKHLFRRNNGTLVVQSLHGVFKVKDTTTLQQHLVDGRDMIIIRMPKDFPPFPQKLKFREPQREERICLVTTNFQTKSMSSMVSDTSCTFPSGDGIFWKHWIQTKDGQCGSPLVSTRDGFIVGIHSASNFTNTNNYFTSVPKNQMELLTNQEAQQWVSGWRLNADSVLWGGHKVFMVKPEEPFQPVKEATQL [F187Q]
area with substrate ECLYFQS: 0.0645
area with substrate EELYFQS: 0.0931
area with substrate EFLYFQS: 0.0625
area with substrate EGLYFQS: 0.0627
area with substrate EILYFQS: 0.0642
area with substrate EKLYFQS: 0.0761
area with substrate ELLYFQS: 0.0667
area with substrate EPLYFQS: 0.074
area with substrate EQLYFQS: 0.0738
area with substrate ERLYFQS: 0.075
area with substrate ESLYFQS: 0.053
area with substrate EVLYFQS: 0.071
area with substrate EWLYFQS: 0.0633

MGESLFKGPRDYNPISSSICHLTNESDGHTTSLYGIGFGPFIITNKHLFRRNNGTLVVQSLHGVFKVKDTTTLQQHLVDGRDMIIIRMPKDFPPFPQKLKFREPQREERICLVTTNFQTKSMSSMVSDTSCTFPSGDGIFWKHWIQTKDGQCGSPLVSTRDGFIVGIWSASNFTNTNNYFTSVPKNFMELLTNQEAQQWVSGWRLNADSVLWGGHKVFMVKPEEPFQPVKEATQL [H168W]
area with substrate ECLYFQS: 0.025
area with substrate EDLYFQS: 0.0389
area with substrate EELYFQS: 0.0737
area with substrate EHLYFQS: 0.0587
area with substrate EILYFQS: 0.0574
area with substrate EKLYFQS: 0.0829
area with substrate ELLYFQS: 0.0596
area with substrate EMLYFQS: 0.062
area with substrate EPLYFQS: 0.0573
area with substrate EQLYFQS: 0.058
area with substrate ERLYFQS: 0.0626
area with substrate ESLYFQS: 0.0613
area with substrate ETLYFQS: 0.0521
area with substrate EVLYFQS: 0.0589
area with substrate EWLYFQS: 0.0465
area with substrate EYLYFQS: 0.0605

MGESLFKGPRDYNPISSSICHLTNESDGHTTSLYGIGFGPFIITNKHLFRRNNGTLVVQSLHGVFKVKDTTTLQQHLVDGRDMIIIRMPKDFPPFPQKLKFREPQREERICLVTTNFQTKSMSSMVSDTSCTFPSGDGIFWKHWIQTKDGQCGSPLVSTRDGFIVGIHSASNFTNTNNYLTSVPKNFMELLTNQEAQQWVSGWRLNADSVLWGGHKVFMVKPEEPFQPVKEATQL [F180L]
area with substrate ECLYFQS: 0.101
area with substrate EMLYFQS: 0.129
area with substrate EQLYFQS: 0.175
area with substrate ESLYFQS: 0.15
area with substrate ETLYFQS: 0.126
area with substrate EVLYFQS: 0.078

MGESLFKGPRDYNPISSSICHLTNESDGHTTSLYGIGFGPFIITNKHLFRRNNGTLVVQSLHGVFKVKDTTTLQQHLVDGRDMIIIRMPKDFPPFPQKLKFREPQREERICLVTTNFQTKSMSSMVSDTSCTFPSGDGIFWKHWIQTKDGQCGSPLVSTRDGFIVGIHSASNFTFTNNYFTSVPKNFMELLTNQEAQQWVSGWRLNADSVLWGGHKVFMVKPEEPFQPVKEATQL [N175F]
area with substrate ECLYFQS: 0.0628
area with substrate EDLYFQS: 0.0876
area with substrate EELYFQS: 0.0902
area with substrate EGLYFQS: 0.11
area with substrate EHLYFQS: 0.0742
area with substrate EILYFQS: 0.0853
area with substrate EKLYFQS: 0.0724
area with substrate ELLYFQS: 0.0984
area with substrate EMLYFQS: 0.0637
area with substrate EPLYFQS: 0.0753
area with substrate EQLYFQS: 0.0779
area with substrate ERLYFQS: 0.0789
area with substrate ESLYFQS: 0.0789
area with substrate EVLYFQS: 0.0683
area with substrate EWLYFQS: 0.0696

MGESLFKGPRDYNPISSSICHLTNESDGHTTSLYGIGFGPFIITNKHLFRRNNGTLVVQSLHGVFKVKDTTTLQQHLVDGRDMIIIRMPKDFPPFPQKLKFREPQREERICLVTTNFQTKSMSSMVSDTSCTFPSGDGIFWKHWIQTKDGQCGSPLVSTRDMFIVGIHSASNFTNTNNYFTSVPKNFMELLTNQEAQQWVSGWRLNADSVLWGGHKVFMVKPEEPFQPVKEATQL [G162M]
area with substrate ECLYFQS: 0.102
area with substrate EELYFQS: 0.102
area with substrate EGLYFQS: 0.113
area with substrate EHLYFQS: 0.0874
area with substrate EILYFQS: 0.0856
area with substrate EKLYFQS: 0.0922
area with substrate ELLYFQS: 0.0818
area with substrate EMLYFQS: 0.118
area with substrate EPLYFQS: 0.129
area with substrate ERLYFQS: 0.0936
area with substrate ESLYFQS: 0.0922
area with substrate EVLYFQS: 0.0872
area with substrate EWLYFQS: 0.1

MGESLFKGPRDYNPISSSICHLTNESDGHTTSLYGIGFGPFIITNKHLFRRNNGTLVVQSLHGVFKVKDTTTLQQHLVDGRDMIIIRMPKDFPPFPQKLKFREPQREERICLVTTNFQTKSMSSMVSDTSCTFPSGDGIFWKHWIQTKDGQSGSPLVSTRDGFIVGIHSASNFTNTNNYFTSVPKNFMELLTNQEAQQWVSGWRLNADSVLWGGHKVFMVKPEEPFQPVKEATQL [C152S]
area with substrate ECLYFQS: 0.0684
area with substrate EDLYFQS: 0.0919
area with substrate EHLYFQS: 0.0636
area with substrate EILYFQS: 0.0602
area with substrate EQLYFQS: 0.0851
area with substrate ERLYFQS: 0.0708
area with substrate ESLYFQS: 0.056
area with substrate ETLYFQS: 0.075
area with substrate EVLYFQS: 0.0857
area with substrate EWLYFQS: 0.0932

MGESLFKGPRDYNPISSSICHLTNESDGHTTSLYGIGFGPFIITNKHLFRRNNGTLVVQSLHGVFKVKDTTTLQQHLVDGRDMIIIRMPKDFPPFPQKLKFREPQREERICLVTTNFQTKSMSSMVSDTSCTFPSGDGIFWKHWIQTKDGQCGSPLVSTRDGFIVGIHSASNFTNTNNYFTSVPKNFMELLTNREAQQWVSGWRLNADSVLWGGHKVFMVKPEEPFQPVKEATQL [Q194R]
area with substrate ECLYFQS: 0.0819
area with substrate EDLYFQS: 0.127
area with substrate EGLYFQS: 0.102
area with substrate EILYFQS: 0.107
area with substrate EKLYFQS: 0.0951
area with substrate ELLYFQS: 0.0857
area with substrate EMLYFQS: 0.103
area with substrate EQLYFQS: 0.0997
area with substrate ERLYFQS: 0.131
area with substrate ESLYFQS: 0.111
area with substrate ETLYFQS: 0.106
